For assay [1], the target named is Apolipoprotein E4 (human) (UniProt P02649). Kind of assay: SEC + SEC-MALS; gel filtration on HiLoad Superdex 26/600 200 pg in 20 mM Hepes, 300 mM NaCl, 10% glycerol pH 8.0; SEC-MALS at 5 mg/mL in 20 mM Hepes, 300 mM NaCl, 1 mM TCEP pH 8.0, RT, Shodex Kw-403 column; oligomer in solution.
The target is the same in assay [2]. Kind of assay: SAXS; in-line SEC-SAXS, 10 mg/mL, 20 °C, 20 mM Hepes, 300 mM NaCl pH 8.0, Shodex Kw-403 column.

A word on the stoichiometry N: it is the number of molecules, sites or subunits per partner or assembly. “Apolipoprotein E4 (a stretch of the chain, sequence not shown) (natural protein; other documents disagree on this pair)”: the stoichiometry N in assay [1] and in assay [2] was 4 throughout.
